Here are results for 1 substance from PMC7564666.

Chains of the proteins cited; added tags and fusions are not shown.
UniProt Q9UKV8: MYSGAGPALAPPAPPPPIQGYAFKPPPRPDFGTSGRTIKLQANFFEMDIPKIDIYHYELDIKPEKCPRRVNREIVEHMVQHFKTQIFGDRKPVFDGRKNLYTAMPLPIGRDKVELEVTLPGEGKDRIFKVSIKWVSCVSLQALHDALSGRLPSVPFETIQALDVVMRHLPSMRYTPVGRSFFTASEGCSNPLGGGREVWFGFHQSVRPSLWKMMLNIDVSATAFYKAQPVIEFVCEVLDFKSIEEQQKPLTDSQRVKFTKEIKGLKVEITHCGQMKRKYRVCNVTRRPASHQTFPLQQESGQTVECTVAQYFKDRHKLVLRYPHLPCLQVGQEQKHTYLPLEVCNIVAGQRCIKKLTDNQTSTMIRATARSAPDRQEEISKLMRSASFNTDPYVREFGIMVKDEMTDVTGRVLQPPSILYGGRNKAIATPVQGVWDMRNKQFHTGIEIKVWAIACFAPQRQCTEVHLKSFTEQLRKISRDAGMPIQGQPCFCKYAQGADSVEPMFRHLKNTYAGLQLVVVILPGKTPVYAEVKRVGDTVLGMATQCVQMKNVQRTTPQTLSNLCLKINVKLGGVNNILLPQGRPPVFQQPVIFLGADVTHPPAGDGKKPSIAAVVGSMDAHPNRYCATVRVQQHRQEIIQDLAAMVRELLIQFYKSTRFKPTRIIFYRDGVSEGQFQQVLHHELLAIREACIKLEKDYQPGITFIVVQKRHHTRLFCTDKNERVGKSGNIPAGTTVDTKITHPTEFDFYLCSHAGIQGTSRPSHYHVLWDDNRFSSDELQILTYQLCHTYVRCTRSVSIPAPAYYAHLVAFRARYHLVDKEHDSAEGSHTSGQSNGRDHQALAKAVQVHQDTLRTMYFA

Numbering of substitutions follows the chain as printed. Results are given in words; binding and its absence hold for the method and conditions named. In cells and extracts the contact can be indirect. Some results given as binding are weak or reduced against the parent protein; the word gives no strength. Where a sequence is shown, tags or fusion partners need not be part of it.

Holding throughout (assay): pull-down; GST-LASP1 phospho-mutants on glutathione-agarose beads with 231S total lysate (Co-IP buffer; endogenous LASP1 present); Western blot for Ago2; only the target purified
In general terms: A western blot detects proteins with antibodies after separation by electrophoresis.

The target in one experiment is T1, GST-LASP1 S146D (human) (UniProt Q14847).
T1 sequence: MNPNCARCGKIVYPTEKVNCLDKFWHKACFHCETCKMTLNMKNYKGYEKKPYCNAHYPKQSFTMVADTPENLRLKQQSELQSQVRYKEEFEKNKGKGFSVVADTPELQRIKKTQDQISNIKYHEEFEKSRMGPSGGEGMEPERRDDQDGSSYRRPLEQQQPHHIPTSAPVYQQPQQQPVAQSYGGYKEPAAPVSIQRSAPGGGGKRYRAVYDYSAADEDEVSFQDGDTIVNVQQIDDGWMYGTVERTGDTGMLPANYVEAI

Experiment [1] has as its target T2, GST-LASP1 S146A/Y171D (human) (UniProt Q14847).
T2 sequence: T1 sequence with D146A, Y171D

In another experiment the target is T3, GST-LASP1 Y171F (human) (UniProt Q14847).
T3 sequence: T1 sequence with D146S, Y171F

Experiment [2] has as its target T4, GST-LASP1 S146D/Y171F (human) (UniProt Q14847).
T4 sequence: T1 sequence with Y171F

Experiment [3] addresses T5, GST-LASP1 S146A/Y171F (human) (UniProt Q14847).
T5 sequence: T1 sequence with D146A, Y171F

For experiment [4], the target named is T6, GST-LASP1 S146D/Y171D (human) (UniProt Q14847).
T6 sequence: T1 sequence with Y171D

For another experiment, the target named is T7, GST-LASP1 Y171D (human) (UniProt Q14847).
T7 sequence: T1 sequence with D146S, Y171D

The next experiment addresses T8, GST-LASP1 S146A (human) (UniProt Q14847).
T8 sequence: T1 sequence with D146A

Turning to “argonaute 2 (Ago2), endogenous (from UniProt Q9UKV8 1-859)”, the binding result was “binds” in the experiment with GST-LASP1 S146D (human); “binds” in experiment [1]; “binds” with GST-LASP1 Y171F (human); “binds weakly” in experiment [2]; “binds” in experiment [3]; “binds” in experiment [4]. For the same substance, the binding result with GST-LASP1 Y171D (human) and with GST-LASP1 S146A (human) was “binds” throughout.
